Several values for one entry are separate records, joined by “and”; a condition that tells them apart may be missing. Identical values can stand only once. Screen size: about 270,000 compounds; about 5,800 (2.1%) were called active. The shares of active, inactive and inconclusive entries below differ from those in the screen. Calls follow the shape of the dose curve; as a rule, active = well fitted inhibition curve with a large enough effect; inconclusive = small, poorly fitted or top-dose-only effect; inactive = flat fitted curve, though single readings scatter. Where the call is inconclusive, the potency comes from a doubtful curve fit.
biological target: Microtubule-associated protein tau (Homo sapiens) (UniProt P10636); test: qHTS for Inhibitors of Tau Fibril Formation, Thioflavin T Binding; conditions: recombinant tau K18 P301L (four-repeat tau fragment), heparin-induced fibrillization, ThT fluorescence; series mostly up to 57.4 µM; activity, negative = inhibition: at the top concentration; also: nearly all actives have a fitted effect of over 55% in size
Procedure, shortened: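 Aggregation was driven by heparin (20 uM final) acting on recombinant tau […] bearing P301L in 100 mM sodium acetate pH 7; fibrils were detected with Thioflavin T.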
% is scaled to controls: 0 for no effect and ±100 for the full control effect; potency is read from the fitted curve at half-maximal effect; tags tell the direction and shape of the fitted curve.

UniProt P10636, sequence (P10636 whole entry, looked up, the tested form may be a part): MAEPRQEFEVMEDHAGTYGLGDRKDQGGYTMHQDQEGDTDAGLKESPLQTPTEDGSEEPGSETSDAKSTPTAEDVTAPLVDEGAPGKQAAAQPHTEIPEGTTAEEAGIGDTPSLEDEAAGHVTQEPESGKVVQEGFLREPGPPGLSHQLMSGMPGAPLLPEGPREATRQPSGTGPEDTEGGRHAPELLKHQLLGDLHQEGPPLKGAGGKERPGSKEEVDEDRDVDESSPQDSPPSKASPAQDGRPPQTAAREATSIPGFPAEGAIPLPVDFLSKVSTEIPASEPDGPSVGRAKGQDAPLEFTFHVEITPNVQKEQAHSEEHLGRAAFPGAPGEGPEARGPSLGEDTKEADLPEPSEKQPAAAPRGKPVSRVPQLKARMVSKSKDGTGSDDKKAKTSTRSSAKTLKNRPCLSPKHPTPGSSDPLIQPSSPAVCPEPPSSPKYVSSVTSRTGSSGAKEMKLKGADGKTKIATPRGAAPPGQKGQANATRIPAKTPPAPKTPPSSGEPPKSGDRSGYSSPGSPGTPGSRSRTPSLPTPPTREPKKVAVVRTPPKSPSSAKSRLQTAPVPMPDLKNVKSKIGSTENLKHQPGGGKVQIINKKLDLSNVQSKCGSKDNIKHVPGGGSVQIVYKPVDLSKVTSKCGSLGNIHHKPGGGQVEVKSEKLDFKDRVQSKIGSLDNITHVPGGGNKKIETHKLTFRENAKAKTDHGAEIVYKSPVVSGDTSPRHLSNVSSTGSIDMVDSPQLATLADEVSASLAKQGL

Structure (SMILES)	Potency	activity, negative = inhibition
COc1ccc([N+](=O)[O-])cc1/C=N/NC(=O)CNC(=O)c1cccc(F)c1	inconclusive: 12.6 µM [inhibitor, partial curve]	
COc1ccccc1NC1=C(Cl)C(=O)OC1OC(=O)c1ccco1 (stereo not given)	inconclusive: 10 µM [inhibitor, partial curve]	
O=C(O)c1ccc(N/N=C/c2cn(Cc3ccccc3F)c3ccccc23)cc1	active: 14.1 µM	
CC(=O)c1cccc(NC(=O)Cn2nc(-c3ccc(Cl)cc3)ccc2=O)c1		inactive: 6.71%
CCOC(=O)C1=C(C)N=C2SCCC(=O)N2C1c1ccc(OCc2ccccc2)c(OC)c1 (stereo not given)	inconclusive: 8.91 µM [inhibitor, partial curve]	
COCCOC(=O)c1ccc(NC(=O)COc2ccc([N+](=O)[O-])cc2)cc1	inconclusive: 7.08 µM [inhibitor, partial curve]	
COc1ccc(F)cc1S(=O)(=O)Nc1ccc2c(c1)CCCN2C(=O)c1cccs1		inactive: -8.9%
COc1ccc(C(=O)CCC(=O)Nc2ccc(F)cc2F)cc1		inactive: -5.04%
COC(=O)c1sccc1-c1ccc(C(=O)Nc2cccnc2)o1	inconclusive: 11.2 µM [inhibitor, partial curve]	
CNC1(c2nnnn2-c2ccccc2C)CCOC(C)(C)C1 (stereo not given)		inactive: -2.17%
CC(=O)Nc1ccc(/C(C)=N/NC(=O)c2ccc(CN3CCOCC3)cc2)cc1	inconclusive: 35.5 µM [inhibitor, single point]	
CCC1=C(OC(=O)N(CC)CC)N2C(=O)OC(=NCCc3c[nH]c4ccccc34)[C@]2(C)[C@H]2C1=CC[C@H]1C(=O)N(CC(=O)OC)C(=O)[C@H]12	inconclusive: 12.6 µM [inhibitor, partial curve]	
O=C(Cc1cccs1)Nc1ccc(-c2nc3ccccc3[nH]2)cc1	inconclusive: 15.8 µM [activator, partial curve]	
Cc1ccc(C)c(NC(=O)N2CCN3CCCCC3C2)c1 (stereo not given)		inactive: 6.25%
CCn1c2c(c(=O)n3ncc(C(=O)N4CCN(c5ccc(C(C)=O)cc5)CC4)c13)CN(Cc1ccc(OC)cc1)CC2	inconclusive: 22.4 µM [inhibitor, single point]	
O=C1N=c2ccccc2=C1c1sc(=S)n(-c2ccc(O)cc2)c1O	inconclusive: 3.98 µM [inhibitor, full curve]	
O=C(Nc1ccc(F)cc1F)c1cc(S(=O)(=O)N2CCCCC2)c[nH]1	inconclusive: 8.91 µM [inhibitor, partial curve]	
O=C(Nc1nccs1)c1sc2cc(Cl)ccc2c1Cl	inconclusive: 1.12 µM [inhibitor, full curve]	
O=C(CSc1nnc2c(Cl)cc(C(F)(F)F)cn12)NCc1ccc(F)cc1	inconclusive: 31.6 µM [inhibitor, single point]	
COc1ccccc1C(=O)Oc1c(Sc2ccccc2)c(C)nn1-c1ccccc1	inconclusive: 39.8 µM [inhibitor, single point]	
S=c1[nH]ccn1Cc1ccccc1		inactive: 1.05%
Cc1cccc(OCCCC(=O)Nc2ccc(S(N)(=O)=O)cc2)c1		inactive: -9.94%
COC(=O)C1C(O)=C(C=Nc2ccc(N)cc2)C(=O)CC1(C)C (stereo not given)	inconclusive: 39.8 µM [inhibitor, partial curve]	
Cc1ccc(SCCC(=O)OCC(=O)Nc2ncc(Cl)cc2Cl)cc1	inconclusive: 31.6 µM [inhibitor, single point]	

Structure (SMILES)	Potency	activity, negative = inhibition
Fc1cccc(/C=N/Nc2nc3ccccc3[nH]2)c1	inconclusive: 15.8 µM [inhibitor, partial curve]	
Cc1ccc(C(=O)NCCc2ccc(S(N)(=O)=O)cc2)cc1[N+](=O)[O-]	inconclusive: 31.6 µM [inhibitor, partial curve, poor fit]	
O=C(CCCOc1ccccc1)Nc1ccc2c(c1)OCCO2	inconclusive: 7.94 µM [inhibitor, partial curve]	
Cc1ccc(NNC(=O)c2c(C)noc2C)cc1Cl		inactive: -12%
O=C(Nc1cccc(Cl)c1)c1cc(-c2ccc3c(c2)OCO3)on1	inconclusive: 0.355 µM [inhibitor, full curve, poor fit]	
COC(=O)C1=C(C)N(Cc2cccnc2)C(=O)/C1=C\c1sccc1C	active: 14.1 µM	
COc1ccc(O[C@H]2C=C[C@@H](c3ccccc3)O[C@@H]2COC(=O)CC/C(C)=N/O[C@H](C)c2cn([C@@H]3COC[C@H]3O)nn2)cc1	inconclusive: 15.8 µM [inhibitor, partial curve, poor fit]	
CCn1c(CSc2nc3ccccc3s2)nc2ccccc21	inconclusive: 31.6 µM [inhibitor, partial curve]	
CC(=O)OCC1OC(C#Cc2ccc(Cl)cc2)C=CC1OC(C)=O (stereo not given)		inactive: -7.83% [at 11.5 µM] and inactive: -14.1% [at 11.5 µM]
CCCCCn1nc(C)c(/C=N\NC(=O)c2cc(C)oc2C)c1C	inconclusive: 39.8 µM [inhibitor, single point]	
CCOc1ccc(S(=O)(=O)Nc2cccc(OC)c2)c2cccnc12		inactive: -5.64%
COc1ccc(NS(=O)(=O)c2ccc3[nH]c(=O)ccc3c2)cc1OC	inconclusive: 8.91 µM [inhibitor, partial curve]	
COc1cc(C2NC(=S)NC(C)=C2C(=O)c2ccccc2)ccc1O (stereo not given)	inconclusive: 22.4 µM [inhibitor, single point]	
COCCn1c(C)cc(C(=O)COC(=O)c2ccc(N3CCCC3=O)cc2)c1C	inconclusive: 39.8 µM [inhibitor, single point]	
COc1ccc(/C=C2\Cc3ccccc3C2=O)cc1OC	inconclusive: 6.31 µM [inhibitor, full curve]	
CN(C)CCCOC1C(C(O)CO)OC2OC(C)(C)O[C@@H]21 (stereo not given in full)		inactive: -3.73%
N/C(=N\N=C/c1ccc(Br)cc1)N/N=C\c1ccc(Br)cc1	inconclusive: 39.8 µM [inhibitor, single point]	
CCC1=C(OC(=O)c2ccccc2)C(C)(C)C(c2ccccc2)OC1=O (stereo not given)	inconclusive: 39.8 µM [inhibitor, single point]	
Cc1nc(-c2ccccc2)sc1CCNC(=O)C(=O)Nc1ccc(F)c(Cl)c1	inconclusive: 1 µM [inhibitor, full curve]	
CCOC(=O)C(C)Sc1ncc(-c2ccc(Cl)cc2)cn1 (stereo not given)	inconclusive: 1.78 µM [inhibitor, full curve]	
CCCN=Cc1c(CCC)[nH]n(-c2nc3ccccc3s2)c1=O	inconclusive: 44.7 µM [inhibitor, single point]	
N#Cc1cc(Oc2cccnc2)c(Oc2cccnc2)cc1C#N		inactive: -15.1%
CC(=O)Nc1cc(C(C)(C)C)c(O)c(C(C)(C)C)c1		inactive: -10.7%
COc1ccc(C(=O)C(CN2CCOCC2)c2ccccc2)cc1F (stereo not given)	inconclusive: 25.1 µM [inhibitor, single point]	

Structure (SMILES)	Potency	activity, negative = inhibition
CCCCn1c(=O)c2oc3ccccc3c2n(Cc2ccccc2C)c1=O		inactive: 8.79%
CCOC(=O)c1[nH]c2c(c1Cc1ccccc1OC)C(=O)CC(c1ccccc1)C2 (stereo not given)		inactive: 4.62%
Cc1ccc(C(=O)CSc2ccc(-c3ccccc3)nn2)cc1	inconclusive: 15.8 µM [inhibitor, partial curve, poor fit]	
COc1ccccc1N(C)S(=O)(=O)c1ccc(C(=O)OCC(=O)N2CCC2)cc1		inactive: -4.88%
O=C(Nc1cc(-c2ccc(Cl)cc2)no1)c1ccc(F)cc1		inactive: -0.487%
COCCc1nn2c(=O)cc(COC(=O)c3ccccc3C)nc2s1	inconclusive: 28.2 µM [inhibitor, partial curve]	
COc1ccc(OC)c(-n2c(=S)[nH]c3c(sc(=S)n3-c3ccccc3C)c2=O)c1	inconclusive: 39.8 µM [inhibitor, single point]	
O=C1Nc2ccc(I)cc2/C1=C/c1cc(Br)c(O)c(Br)c1	active: 3.55 µM and active: 4.47 µM and active: 3.98 µM	
CCCNc1sc(S(=O)(=O)CCC)nc1S(=O)(=O)c1ccc(C)cc1		inactive: -3.49%
Cc1cccc(C(=O)NC(=S)Nc2ccc(N3CCOCC3)cc2)c1	inconclusive: 12.6 µM [inhibitor, partial curve]	
O=C(CSc1n[nH]c(-c2ccncc2)n1)c1cccc([N+](=O)[O-])c1	inconclusive: 28.2 µM [inhibitor, partial curve]	
O=C(COc1ccc(C(=O)c2ccc(F)cc2)cc1)NCc1ccc(F)cc1		inactive: -3.01%
COc1ccccc1/C=C/C=N/n1c(-c2ccccc2)n[nH]c1=S		inactive: -2.8%
CCOc1ccccc1C(=O)NCC(c1cccs1)S(=O)(=O)c1ccc(F)c(C)c1 (stereo not given)		inactive: -3.61%
COc1ccc(Cl)cc1Nc1nc(-c2sc(NC(=O)c3ccco3)nc2C)cs1	inconclusive: 11.2 µM [inhibitor, partial curve]	
COc1cc(C)c(S(=O)(=O)N2CCOCC2)cc1C		inactive: 0.676%
CC(=O)NC(NC(=S)Nc1ccc(S(N)(=O)=O)cc1)C(Cl)(Cl)Cl (stereo not given)		inactive: -7.13%
O=[N+]([O-])c1cccc(/C=C/C=N/Nc2nc(N3CCCCC3)nc(N3CCCCC3)n2)c1	inconclusive: 12.6 µM [inhibitor, partial curve]	
COCC(=O)Nc1ccc(C(C)C)cc1		inactive: -10%
O=C(Nc1sc2c(c1C(=O)NCc1ccccc1)CCCC2)c1cc(=O)c2ccccc2o1	inconclusive: 28.2 µM [inhibitor, partial curve]	
CCc1ccc(NC(=O)C(=O)NCC(c2cccnc2)N2CCc3ccccc3C2)cc1 (stereo not given)	inconclusive: 1.41 µM [inhibitor, full curve]	
CC(=O)[C@@H]1[C@@H](C(=O)c2ccc(F)cc2)[C@]2(C(=O)Nc3ccccc32)[C@H]2C=Cc3cc(F)ccc3N12	inconclusive: 20 µM [inhibitor, partial curve, poor fit]	

From PubChem BioAssay AID1460 (National Center for Advancing Translational Sciences (NCATS), 2008)
